No constants are given. Whether binding was seen depends on the method and setting. In cells and extracts the contact can be indirect. Some results given as binding are weak or reduced against the parent protein; the word gives no strength. Where a sequence is shown, tags or fusion partners need not be part of it.
T1: Myc-TRBP1 (human) (UniProt Q15633)
T1 sequence: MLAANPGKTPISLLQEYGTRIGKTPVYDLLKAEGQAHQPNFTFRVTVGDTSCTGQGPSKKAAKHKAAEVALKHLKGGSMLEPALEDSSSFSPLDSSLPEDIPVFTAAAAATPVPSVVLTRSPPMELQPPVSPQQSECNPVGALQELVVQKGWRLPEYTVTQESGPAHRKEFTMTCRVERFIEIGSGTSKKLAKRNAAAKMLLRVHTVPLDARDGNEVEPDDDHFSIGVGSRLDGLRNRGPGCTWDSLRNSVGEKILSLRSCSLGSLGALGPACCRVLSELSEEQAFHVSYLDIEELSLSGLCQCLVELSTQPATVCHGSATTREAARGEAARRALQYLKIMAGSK

By UniProt entry, the sequences of proteins in these tests, tags left out.
UniProt Q8R418: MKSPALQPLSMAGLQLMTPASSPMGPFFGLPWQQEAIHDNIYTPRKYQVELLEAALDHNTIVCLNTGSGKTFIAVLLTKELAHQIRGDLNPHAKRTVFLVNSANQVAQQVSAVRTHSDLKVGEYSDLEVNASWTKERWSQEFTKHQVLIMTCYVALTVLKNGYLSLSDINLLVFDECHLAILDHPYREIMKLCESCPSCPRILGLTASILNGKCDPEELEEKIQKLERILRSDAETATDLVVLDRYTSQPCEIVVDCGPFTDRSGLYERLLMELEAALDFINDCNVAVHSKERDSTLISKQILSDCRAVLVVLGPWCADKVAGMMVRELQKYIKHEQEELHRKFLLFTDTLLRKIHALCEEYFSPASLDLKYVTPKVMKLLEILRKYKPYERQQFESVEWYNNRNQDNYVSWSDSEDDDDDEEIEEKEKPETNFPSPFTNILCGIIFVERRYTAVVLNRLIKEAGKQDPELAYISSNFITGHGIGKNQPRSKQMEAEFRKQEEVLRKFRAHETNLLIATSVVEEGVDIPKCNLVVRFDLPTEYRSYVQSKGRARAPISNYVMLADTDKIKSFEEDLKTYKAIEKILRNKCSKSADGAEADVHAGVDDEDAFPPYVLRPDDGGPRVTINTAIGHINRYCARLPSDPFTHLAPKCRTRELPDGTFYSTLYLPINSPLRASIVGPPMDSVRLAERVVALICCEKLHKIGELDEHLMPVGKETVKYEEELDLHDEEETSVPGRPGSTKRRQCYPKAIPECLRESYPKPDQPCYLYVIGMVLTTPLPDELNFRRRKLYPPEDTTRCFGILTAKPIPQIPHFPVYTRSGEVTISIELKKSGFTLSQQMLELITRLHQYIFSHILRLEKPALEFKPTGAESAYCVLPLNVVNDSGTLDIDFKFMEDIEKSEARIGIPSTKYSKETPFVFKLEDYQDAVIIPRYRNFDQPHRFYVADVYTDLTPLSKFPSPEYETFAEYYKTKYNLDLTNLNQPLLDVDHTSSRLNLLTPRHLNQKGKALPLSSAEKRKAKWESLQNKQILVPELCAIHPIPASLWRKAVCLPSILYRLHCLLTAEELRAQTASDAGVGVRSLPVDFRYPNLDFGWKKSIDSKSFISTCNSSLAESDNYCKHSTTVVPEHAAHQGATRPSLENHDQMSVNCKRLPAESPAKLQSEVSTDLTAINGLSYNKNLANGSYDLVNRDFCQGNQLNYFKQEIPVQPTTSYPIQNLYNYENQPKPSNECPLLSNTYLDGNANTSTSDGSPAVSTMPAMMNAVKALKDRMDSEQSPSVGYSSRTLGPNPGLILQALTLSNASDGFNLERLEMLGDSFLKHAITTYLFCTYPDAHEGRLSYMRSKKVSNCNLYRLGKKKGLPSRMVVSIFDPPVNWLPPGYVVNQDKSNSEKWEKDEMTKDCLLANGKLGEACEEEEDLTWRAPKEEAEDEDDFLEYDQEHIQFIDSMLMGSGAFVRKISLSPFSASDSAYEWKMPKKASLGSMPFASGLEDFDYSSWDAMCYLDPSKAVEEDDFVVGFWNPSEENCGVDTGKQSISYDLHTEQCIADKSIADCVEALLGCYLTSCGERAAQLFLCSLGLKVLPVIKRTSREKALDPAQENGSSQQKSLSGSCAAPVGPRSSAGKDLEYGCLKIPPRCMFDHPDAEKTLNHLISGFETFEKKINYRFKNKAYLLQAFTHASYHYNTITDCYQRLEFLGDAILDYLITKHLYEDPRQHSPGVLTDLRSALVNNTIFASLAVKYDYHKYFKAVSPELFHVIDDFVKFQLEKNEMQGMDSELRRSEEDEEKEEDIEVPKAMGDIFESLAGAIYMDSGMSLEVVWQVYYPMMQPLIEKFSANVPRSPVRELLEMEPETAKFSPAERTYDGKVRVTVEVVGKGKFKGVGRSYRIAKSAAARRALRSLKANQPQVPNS

T2: Myc-TRBP1ΔC4 (human) (UniProt Q15633)
T2 sequence: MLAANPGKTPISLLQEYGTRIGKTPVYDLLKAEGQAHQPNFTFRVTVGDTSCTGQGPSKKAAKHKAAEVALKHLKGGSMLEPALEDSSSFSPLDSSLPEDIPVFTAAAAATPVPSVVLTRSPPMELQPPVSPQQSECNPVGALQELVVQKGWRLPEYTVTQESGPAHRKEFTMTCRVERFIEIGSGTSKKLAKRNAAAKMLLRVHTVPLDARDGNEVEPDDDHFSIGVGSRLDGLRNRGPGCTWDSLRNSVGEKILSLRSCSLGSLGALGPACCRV

T3: Myc-TRBP2 (human) (UniProt Q15633)
T3 sequence: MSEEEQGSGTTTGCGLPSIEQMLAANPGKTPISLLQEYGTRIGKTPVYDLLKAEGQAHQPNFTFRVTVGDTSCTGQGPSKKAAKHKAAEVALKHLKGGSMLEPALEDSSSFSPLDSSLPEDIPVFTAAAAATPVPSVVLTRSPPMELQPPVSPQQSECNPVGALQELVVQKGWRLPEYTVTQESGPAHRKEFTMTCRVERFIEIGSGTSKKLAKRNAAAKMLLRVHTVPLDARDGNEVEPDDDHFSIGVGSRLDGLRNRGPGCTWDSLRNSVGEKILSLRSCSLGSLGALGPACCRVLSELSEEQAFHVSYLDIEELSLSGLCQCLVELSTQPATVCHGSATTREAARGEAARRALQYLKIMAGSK

T4: Myc-TRBP2ΔC4 (human) (UniProt Q15633)
T4 sequence: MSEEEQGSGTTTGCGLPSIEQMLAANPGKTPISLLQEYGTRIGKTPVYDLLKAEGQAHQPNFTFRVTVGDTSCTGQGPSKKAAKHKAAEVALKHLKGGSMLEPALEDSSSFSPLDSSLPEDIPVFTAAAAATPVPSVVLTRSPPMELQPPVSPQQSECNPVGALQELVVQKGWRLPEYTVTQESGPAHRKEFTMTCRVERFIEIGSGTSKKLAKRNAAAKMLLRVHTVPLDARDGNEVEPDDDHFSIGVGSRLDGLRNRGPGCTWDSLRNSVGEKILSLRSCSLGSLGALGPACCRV

B1: Myc-TRBP1 (protein, UniProt Q15633-2 1-345)
chain: T1 sequence
B2: Myc-TRBP2 (protein, UniProt Q15633-1 1-366)
chain: T3 sequence
B3: Myc-TRBP1ΔC4 (domain or fragment, UniProt Q15633-2 1-276)
chain: T2 sequence
B4: Myc-TRBP2ΔC4 (domain or fragment, UniProt Q15633 1-297)
chain: T4 sequence

Experiments:
Myc-TRBP1 (human) = target: T1, Myc-TRBP1 (human); test: co-IP; 1 mg extract of transfected tarbp2-/- cells; IP with anti-Myc on protein G sepharose, overnight at 4°C; blot with anti-Dicer
Myc-TRBP1ΔC4 (human) = target: T2, Myc-TRBP1ΔC4 (human); test: as above
Myc-TRBP2 (human) = target: T3, Myc-TRBP2 (human); test: as above
Myc-TRBP2ΔC4 (human) = target: T4, Myc-TRBP2ΔC4 (human); test: as above
[1] = target: endogenous Dicer of murine tarbp2-/- cells (mouse (endogenous in tarbp2-/- tail embryonic fibroblasts)) (UniProt Q8R418); test: co-IP; 1 mg extract of transfected tarbp2-/- cells; IP with monoclonal anti-Dicer 73 on protein G sepharose, overnight at 4°C; blot with anti-Myc (and anti-TRBP 672)

| Molecule | binding [1] | further results |
| --- | --- | --- |
| endogenous Dicer of murine tarbp2-/- cells (from UniProt Q8R418 1-1916) | – | binding (Myc-TRBP1 (human)): binds; binding (Myc-TRBP1ΔC4 (human)): no binding; binding (Myc-TRBP2 (human)): binds; binding (Myc-TRBP2ΔC4 (human)): no binding |
| B1 | binds | – |
| B2 | binds | – |
| B3 | no binding | – |
| B4 | no binding | – |

Reference: article PMC2685382
